# Results as given in PubChem BioAssay AID1030 (National Center for Advancing Translational Sciences (NCATS), 2008).
# The whole screen tested about 220,000 compounds, of which about 16,000 (7.3%) were called active. The shares of active, inactive and inconclusive entries below differ from those in the screen. Calls follow the shape of the dose curve; as a rule, active = well fitted inhibition curve with a large enough effect (not every such curve was filed as active); inconclusive = small, poorly fitted or top-dose-only effect, or another doubt; inactive = no such curve, though single readings can be large or run the other way. Potencies of inconclusive entries are left out as doubtful fits.
# Molecular target: Aldehyde dehydrogenase 1A1 (Homo sapiens) (UniProt P00352)
# Sequence of UniProt P00352 (P00352 whole entry, looked up): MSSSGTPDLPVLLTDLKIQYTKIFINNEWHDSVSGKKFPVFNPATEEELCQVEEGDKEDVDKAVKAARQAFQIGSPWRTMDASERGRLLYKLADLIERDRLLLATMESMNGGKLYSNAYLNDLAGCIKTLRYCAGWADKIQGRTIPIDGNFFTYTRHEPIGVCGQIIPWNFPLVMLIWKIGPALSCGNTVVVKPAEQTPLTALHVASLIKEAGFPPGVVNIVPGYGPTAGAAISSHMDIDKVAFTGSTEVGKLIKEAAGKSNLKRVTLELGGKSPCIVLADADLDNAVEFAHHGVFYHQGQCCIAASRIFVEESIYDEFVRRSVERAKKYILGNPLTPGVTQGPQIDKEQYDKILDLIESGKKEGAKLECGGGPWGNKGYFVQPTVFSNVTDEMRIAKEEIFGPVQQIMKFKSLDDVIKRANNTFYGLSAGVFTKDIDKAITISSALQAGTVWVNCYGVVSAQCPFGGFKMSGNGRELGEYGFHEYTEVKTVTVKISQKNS
# Experiment: qHTS Assay for Inhibitors of Aldehyde Dehydrogenase 1 (ALDH1A1)
# Details: Purified ALDH1A1, NADH fluorescence, propionaldehyde substrate; series mostly up to 75.3 µM
# Potency is read from the fitted curve at half-maximal effect; tags tell the direction and shape of the fitted curve.
row,SMILES,Potency
1,C=CCn1c(SCC(=O)Nc2ccccc2OC)nnc1-c1ccco1,"inconclusive [inhibitor, single point]"
2,COc1ccc(/C=C2\NC(=S)N(CC3CCCO3)C2=O)c(OC)c1 (stereo unspecified),active: 1.26 µM
3,COc1ccc(C2=NOC(C(=O)Nc3cc(C)on3)C2)cc1 (stereo unspecified),"inconclusive [inhibitor, single point]"
4,C=CCc1ccccc1OCC(=O)N/N=C/c1ccc(OC(C)=O)cc1OC(C)=O,inactive
5,O=C(Nc1cccc(F)c1)N1CCC2(CC1)CCN(C(=O)c1ccncc1)CC2,inactive
6,c1ccc(CCNc2nc(-c3ccccn3)cs2)cc1,active: 31.6 µM
7,Cc1ccc(CNC(=O)c2cc3c(-c4ccc(Cl)cc4)nn(C)c3s2)o1,"inconclusive [inhibitor, partial curve]"
8,CN1CCN(C2=C(Cl)C(=O)N(c3cccc(Cl)c3)C2=O)CC1,"inconclusive [inhibitor, single point]"
9,CSc1nc2ccc(NC(=O)C3=NN(c4ccccc4)C(=O)CC3)cc2s1,"inconclusive [inhibitor, single point]"
10,COC(=O)C1C(=O)C2=C(CC1C)NC(C)=C(C(=O)OC1CCCCC1)C2c1ccc(N(C)C)cc1 (stereo unspecified),active: 8.91 µM
11,Cc1ccc(CSCC(=O)N2CCOCC2)cc1,active: 25.1 µM
12,CCOc1ccc(Cn2nnc(C(=O)Nc3ccc(OC)cc3OC)c2N)cc1,"inconclusive [inhibitor, single point]"
13,O=C(NCc1ccc2c(c1)OCO2)c1n[nH]c(=O)c2ccccc12,inactive
14,COC(=O)c1sc2nc(N)c(C#N)cc2c1N,"inconclusive [inhibitor, single point]"
15,COc1ccccc1N1CCN(C(=O)c2cc(-c3cccc(Cl)c3)on2)CC1,active: 20 µM
16,CCOc1ccc2nc(NC(=S)N(C)C)sc2c1,active: 25.1 µM
17,Cc1ncc([N+](=O)[O-])n1CCOC(=O)NC(NCc1ccccc1Cl)C(Cl)(Cl)Cl (stereo unspecified),inactive
18,CN1CCN(S(=O)(=O)c2cccc(C(=O)Nc3sc4c(c3C(N)=O)CCCC4)c2)CC1,"inconclusive [inhibitor, single point]"
19,COC(=O)c1c(-c2cccs2)csc1NC(=O)c1cccnc1,"inconclusive [inhibitor, partial curve]"
20,COc1ccccc1N1CCN(C(=O)c2ccc3c(=O)n(Cc4ccco4)c(=S)[nH]c3c2)CC1,"inconclusive [inhibitor, single point]"
21,O=C(NC(=S)NCCc1ccccn1)c1ccccc1,inactive
22,Cc1cc2nc(CCN(Cc3cccnc3)C(=S)Nc3ccccc3)[nH]c2cc1C,"inconclusive [inhibitor, single point]"
23,CCC(c1nnnn1C1CCCC1)N(Cc1cccs1)Cc1cc2cc(C)ccc2[nH]c1=O (stereo unspecified),"inconclusive [inhibitor, single point]"

row,SMILES,Potency
1,CN(C)S(=O)(=O)c1cc(C(=O)OCCn2cnc3c2c(=O)n(C)c(=O)n3C)ccc1Cl,"inconclusive [inhibitor, single point]"
2,C/C(=N\NC(=O)COc1ccc(C(C)(C)C)cc1)c1ccc2c(c1)OCCO2,"inconclusive [inhibitor, single point]"
3,COc1ccc(NC(=O)c2c(F)c(F)c(F)c(F)c2F)cc1Cl,"inconclusive [inhibitor, single point]"
4,Cc1ccc(F)cc1NC(=O)c1cccc(N(C)C)c1,"inconclusive [inhibitor, single point]"
5,CCOC(=O)c1ccc(N=C2SC(C(=O)Nc3ccc(C(=O)O)cc3)CC(=O)N2Cc2cccs2)cc1 (stereo unspecified),inactive
6,CCC(=O)Nc1ccccc1C(=O)OC(c1ccccc1)c1ccccc1,"inconclusive [inhibitor, partial curve]"
7,N#Cc1c(-c2cccs2)nc(SCc2ccc(Cl)cc2)[nH]c1=O,inactive
8,O=S(=O)(NCc1ccco1)c1ccc(S(=O)(=O)N2CCCC2)cc1,active: 8.91 µM
9,Cc1ccc(CCC(=O)Nc2ccc(S(N)(=O)=O)cc2)o1,active: 14.1 µM
10,CCn1cc(C(=O)NCC2CCCO2)c2cc(OC)c(OC)cc2c1=O (stereo unspecified),"inconclusive [inhibitor, single point]"
11,COc1ccc(-c2nc3ccccc3c(C(=O)Nc3ccc(S(=O)(=O)Nc4cc(C)on4)cc3)c2C)cc1,inactive
12,CCCc1nnc(NC(=O)CCC(=O)N2CCN(CCOc3ccc(C)cc3)CC2)s1,"inconclusive [inhibitor, single point]"
13,CCOc1cc(NC(=O)c2ccco2)c(OCC)cc1NC(=O)c1cc(OC)c(OC)c(OC)c1,"inconclusive [inhibitor, partial curve]"
14,Cc1ccc(-c2cc(C(=O)NCCCn3ccnc3)c3cc(Br)ccc3n2)o1,"inconclusive [inhibitor, partial curve]"
15,S=c1[nH]nc(CN2CCCCC2)n1Cc1ccccc1,inactive
16,Cc1ccc(NC(=O)NC(=O)CN2C(=O)NC3(CCc4ccccc43)C2=O)c(C)c1 (stereo unspecified),inactive
17,Cc1cccn2c(CNC3CCCc4ccccc43)c(C(=O)N3CCCCC3)nc12 (stereo unspecified),active: 20 µM
18,O=C(Cn1c(=O)n(CCC(=O)N2CCc3ccccc3C2)c(=O)c2ccccc21)NCC1CCCO1 (stereo unspecified),"inconclusive [inhibitor, single point]"
19,CCn1c(SCC(=O)NC(=O)NCc2ccco2)nc2sc(C)c(C)c2c1=O,active: 8.91 µM
20,CCc1nc(SCC(=O)Nc2nccs2)c2oc3ccccc3c2n1,inactive
21,Cc1cccc2sc(NC(=O)c3ccc(NS(=O)(=O)c4cccs4)cc3)nc12,"inconclusive [inhibitor, single point]"
22,Cc1cc(C)nc(N(C#N)CN2C(=O)c3ccccc3S2(=O)=O)n1,"inconclusive [inhibitor, single point]"
23,O=C(c1cccc(Cl)c1)N1CCCC(C(=O)N2CCCCCC2)C1 (stereo unspecified),"inconclusive [inhibitor, partial curve]"
